This sample is rich in variants without activity.
B1: TPR 5TU (parent)
chain: GGAUCUUCUCGAUCUAACAAAAAAGACAAAUCUGCCACAAAGCUUGAGAGCAUCUUCGGAUGCAGAGGCGGCAGCCUUCGGUGGCGCGAUAGCGCCAACGUUCUCAACUAUGACACGCAAAACGCGUGCUCCGUUGAAUGGAGUUUAUCAUG

Variants of: B1
Test: polymerase ribozyme fitness, log enrichment relative to wild type (log ratio); higher = more active; in vitro selection for triplet polymerase activity
How it was run: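 Frozen incubation at −7 °C formed the core of a single, triplicate in vitro selection round applied to PCR-built, transcribed mutant libraries of each subunit of a heterodimeric triplet polymerase ribozyme. Extended constructs were gel-excised, captured with streptavidin beads and amplified by RT-PCR, and input and output libraries were Illumina-sequenced with a filter of ≥10 input reads and ≥1 read per output. Fitness is the logarithm of genotype enrichment relative to wild-type enrichment, with inverse-variance-weighted replicate averaging, and the logarithm is base 2.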

Row | Variant | polymerase ribozyme fitness (log ratio)
1 | A37C U77C G92A C96A U139C | ≤ -4.2
2 | A37U C85A C93U G141C A147C | ≤ -4.2
3 | A37U G84A U102C C123G | -4.19
4 | C35G U55A G94A U101G C131U | ≤ -4.2
5 | C35U C95U A107C U109A A115U | ≤ -4.2
6 | A37G G48C G50C G65A G74U G84A C103U G136A | ≤ -4.2
7 | A37G G94A | -1.49
8 | C35U A41U C43G C108U U135A G140C | ≤ -4.2
9 | A37C A41G C75G G94A | ≤ -4.2
10 | A37G C54A C69U G86A A122C G133C U151A | ≤ -4.2
11 | C36G G50A C87U U102G G124U | ≤ -4.2
12 | C35U C51U G67A G92A C131G G133A U145G | ≤ -4.2
13 | C36A A73G U134C | ≤ -4.2
14 | C38G A49C A66U C79U A97G G136A | ≤ -4.2
15 | A37C G84A U101G G126C U135C | -3.6
16 | A37C A49C C57G C75U A137U G141C | ≤ -4.2
17 | C35U U56A A91U C116U U134C U146C U148C | ≤ -4.2
18 | C35U A49C G80C C93U C108U A137U | ≤ -4.2
19 | C38A C72A U101G U144A | ≤ -4.2
20 | C36A C96A G133A | ≤ -4.2
21 | C38G C54A G74U A106U G140U | ≤ -4.2

Row | Variant | polymerase ribozyme fitness (log ratio)
22 | C36U C54A G65C G67U G68U C95G A110C A113U C116U G143C C149A | ≤ -4.2
23 | C38A U145C | -0.328
24 | A37G U53C C87G | ≤ -4.2
25 | A37C G94C C105A U139C A150C | ≤ -4.2
26 | C35G U77C G80C C95U C118U U146C | ≤ -4.2
27 | C35G A60U G86C G143U | ≤ -4.2
28 | A37C C85U C105G C108G G141A | ≤ -4.2
29 | C36A C96U A98G | ≤ -4.2
30 | A37G A41C G71A U90A C96U | ≤ -4.2
31 | C35G C43U A49C U82G G84C C96A | ≤ -4.2
32 | A37G C38A C43U C54G G80U U104G | ≤ -4.2
33 | C36U G80U C87U C93U | ≤ -4.2
34 | A37C C57A | 0.0979
35 | A37C A47C G88A G100A A137U | ≤ -4.2
36 | C36A A66G A91U A107C C116A A150G | ≤ -4.2
37 | C38A A60G A73C C95A A115U A142U | ≤ -4.2
38 | C36G C43A A64G C93A | ≤ -4.2
39 | C35U C69A C87A C95A C103A C118G C131A | ≤ -4.2
40 | C35U A49G G88U C93G | ≤ -4.2
41 | A37C U55G G94A | 0.0696
42 | C35U G50C U55A C87U | ≤ -4.2

Row | Variant | polymerase ribozyme fitness (log ratio)
43 | A37C C116G | -0.143
44 | A37G C93A U145G | -3.99
45 | A37C G83U C93G A97G G100U | ≤ -4.2
46 | A37C G48C C76A G86C C95A | ≤ -4.2
47 | A37C G58C U90G U151A | ≤ -4.2
48 | C35G A47C G67U C87G G128A | ≤ -4.2
49 | C36A C87U A106U U139A G143C U148C G152A | ≤ -4.2
50 | C36U U61A C96U G112C A142C | ≤ -4.2
51 | C35U G117U | 0.973
52 | C36U U61A G62A C63A A121G | ≤ -4.2
53 | C36A C132G U145G | ≤ -4.2
54 | A37U C43U C54U G92U A106U U135G G141C | ≤ -4.2
55 | C36U A73G G83A G92A A98C U111G A120U | ≤ -4.2
56 | C35U C57U C93U A98U G117A G128U C149A | ≤ -4.2
57 | C38A A89C C93G C95G C108U U135C | ≤ -4.2
58 | C36U U45G C57U G92C A122G | ≤ -4.2
59 | C35U A113C C114A | ≤ -4.2
60 | C35U C51U U55C C85A U101C C103A U144A | ≤ -4.2
61 | C35G U55A C85U A115C G141C | ≤ -4.2
62 | C36A U45G G68U C95U | ≤ -4.2
63 | A37C A49C A52U C96U C114U G136A G140C | ≤ -4.2

Row | Variant | polymerase ribozyme fitness (log ratio)
64 | C36G A39C C75G U101G U109G | ≤ -4.2
65 | C38A C87A | ≤ -4.2
66 | C35G G92U C96U U127C U139G U148C A150G | ≤ -4.2
67 | C35G A97C A138C | ≤ -4.2
68 | C35U A37U A41G G42U C76U G84C A106U | ≤ -4.2
69 | C35U C57G U77A U82G G83C C93A A137G | ≤ -4.2
70 | A37C U56A G74A A89U G94U C105U C108A | ≤ -4.2
71 | C38A C51U C87G C116G A120C A122C | ≤ -4.2
72 | A37G G71U A73G C93G C99A C131A | ≤ -4.2
73 | A37G A47C G100U G143A | ≤ -4.2
74 | C35U A47C U56G A64U A106U G133U | ≤ -4.2
75 | A37U C57G G84A C105A G143A | ≤ -4.2
76 | C35G A52U U53A U56A C93G C96U C105G G152A | ≤ -4.2
77 | C35U G62U A64G C76A G83A G84C G152C | ≤ -4.2
78 | A37G A97G A98G | -2.55
79 | C38A A40C C93G C95U A107C U144G U146A | ≤ -4.2
80 | A37G A39U G58C G62A C63U A64U U77A C87G C103G A150U | ≤ -4.2
81 | A37C G46A U61A G74A C93U A122U | ≤ -4.2
82 | C35U U53A C99U C105U A106C A115C | ≤ -4.2
83 | C35G C57U C85G U151A | ≤ -4.2
84 | A37U C63U C69U C99U U102A | ≤ -4.2
